No constants are given. Whether binding was seen depends on the method and setting. Binding seen in cells or lysates may run through a third protein. Some results given as binding are weak or reduced against the parent protein; the word gives no strength. For part of these data: Tags and fused reporters may be left off the sequences shown.
Columns and labels:
Assay in all cases: co-IP; LUMIER: luciferase-based co-immunoprecipitation in HEK293T, 96-well; firefly-V5-14-3-3β with protein A-tagged kinases, luciferase read-out
[1] = molecular target: T1, BUB1(K821M) kinase-dead mutant, protein A fusion (HEK293T) (human) (UniProt O43683)
T1 sequence: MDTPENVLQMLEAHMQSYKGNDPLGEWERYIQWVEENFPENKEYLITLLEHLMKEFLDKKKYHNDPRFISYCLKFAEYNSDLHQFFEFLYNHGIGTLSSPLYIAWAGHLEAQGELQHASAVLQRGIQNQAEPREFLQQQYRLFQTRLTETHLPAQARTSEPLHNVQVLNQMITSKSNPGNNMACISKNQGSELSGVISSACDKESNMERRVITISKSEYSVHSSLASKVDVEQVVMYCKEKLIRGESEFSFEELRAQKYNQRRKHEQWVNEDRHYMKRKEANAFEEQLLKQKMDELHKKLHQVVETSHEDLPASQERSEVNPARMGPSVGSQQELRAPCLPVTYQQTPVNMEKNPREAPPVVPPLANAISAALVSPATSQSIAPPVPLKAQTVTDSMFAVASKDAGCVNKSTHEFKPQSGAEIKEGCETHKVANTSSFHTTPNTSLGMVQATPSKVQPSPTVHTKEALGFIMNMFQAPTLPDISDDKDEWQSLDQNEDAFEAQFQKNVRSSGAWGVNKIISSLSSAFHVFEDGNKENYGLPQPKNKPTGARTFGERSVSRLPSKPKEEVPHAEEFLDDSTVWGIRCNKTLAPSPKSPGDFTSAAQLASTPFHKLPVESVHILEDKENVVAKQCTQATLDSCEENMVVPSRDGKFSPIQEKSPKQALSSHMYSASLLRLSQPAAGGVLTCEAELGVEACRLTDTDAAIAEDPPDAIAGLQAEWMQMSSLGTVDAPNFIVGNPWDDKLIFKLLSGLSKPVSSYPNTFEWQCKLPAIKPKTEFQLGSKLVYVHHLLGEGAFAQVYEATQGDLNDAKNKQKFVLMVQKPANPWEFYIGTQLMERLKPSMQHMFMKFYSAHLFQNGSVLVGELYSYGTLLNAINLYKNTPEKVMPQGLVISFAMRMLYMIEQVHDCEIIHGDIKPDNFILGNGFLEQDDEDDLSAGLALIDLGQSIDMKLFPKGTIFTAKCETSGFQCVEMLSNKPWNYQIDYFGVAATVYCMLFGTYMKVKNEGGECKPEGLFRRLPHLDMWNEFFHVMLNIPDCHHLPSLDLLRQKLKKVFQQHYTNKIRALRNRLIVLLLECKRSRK

Chains of the proteins cited; added tags and fusions are not shown. Lines headed by an entry give the natural chain unless they say otherwise; changes in a name come on top.
UniProt Q9P286: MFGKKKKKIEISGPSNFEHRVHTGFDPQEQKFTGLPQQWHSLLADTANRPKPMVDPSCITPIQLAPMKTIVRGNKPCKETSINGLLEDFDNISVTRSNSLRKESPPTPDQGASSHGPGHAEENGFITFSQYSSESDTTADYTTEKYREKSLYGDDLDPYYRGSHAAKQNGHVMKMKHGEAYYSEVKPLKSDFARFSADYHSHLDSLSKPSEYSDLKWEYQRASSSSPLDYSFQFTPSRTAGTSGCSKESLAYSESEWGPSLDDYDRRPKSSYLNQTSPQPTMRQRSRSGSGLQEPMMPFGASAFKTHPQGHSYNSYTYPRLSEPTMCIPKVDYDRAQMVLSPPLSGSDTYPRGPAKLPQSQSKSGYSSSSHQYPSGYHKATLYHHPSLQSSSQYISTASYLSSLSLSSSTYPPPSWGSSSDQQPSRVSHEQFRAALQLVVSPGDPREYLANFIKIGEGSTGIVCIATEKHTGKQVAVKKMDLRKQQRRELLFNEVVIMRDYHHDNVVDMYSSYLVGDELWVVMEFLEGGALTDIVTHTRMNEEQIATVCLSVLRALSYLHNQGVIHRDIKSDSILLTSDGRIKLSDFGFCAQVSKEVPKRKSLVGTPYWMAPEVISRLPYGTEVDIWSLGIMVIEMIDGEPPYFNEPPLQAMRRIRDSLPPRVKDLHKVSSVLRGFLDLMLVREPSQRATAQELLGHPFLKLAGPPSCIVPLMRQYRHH
UniProt Q9HC98: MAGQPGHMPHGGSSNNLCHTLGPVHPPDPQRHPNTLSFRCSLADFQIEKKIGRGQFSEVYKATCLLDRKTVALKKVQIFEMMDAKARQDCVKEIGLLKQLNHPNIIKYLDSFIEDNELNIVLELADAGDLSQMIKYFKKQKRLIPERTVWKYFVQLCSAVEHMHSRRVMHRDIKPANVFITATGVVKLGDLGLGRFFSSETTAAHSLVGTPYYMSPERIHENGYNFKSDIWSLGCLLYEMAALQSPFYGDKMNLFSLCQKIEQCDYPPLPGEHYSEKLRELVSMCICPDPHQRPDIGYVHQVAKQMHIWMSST
UniProt Q00537: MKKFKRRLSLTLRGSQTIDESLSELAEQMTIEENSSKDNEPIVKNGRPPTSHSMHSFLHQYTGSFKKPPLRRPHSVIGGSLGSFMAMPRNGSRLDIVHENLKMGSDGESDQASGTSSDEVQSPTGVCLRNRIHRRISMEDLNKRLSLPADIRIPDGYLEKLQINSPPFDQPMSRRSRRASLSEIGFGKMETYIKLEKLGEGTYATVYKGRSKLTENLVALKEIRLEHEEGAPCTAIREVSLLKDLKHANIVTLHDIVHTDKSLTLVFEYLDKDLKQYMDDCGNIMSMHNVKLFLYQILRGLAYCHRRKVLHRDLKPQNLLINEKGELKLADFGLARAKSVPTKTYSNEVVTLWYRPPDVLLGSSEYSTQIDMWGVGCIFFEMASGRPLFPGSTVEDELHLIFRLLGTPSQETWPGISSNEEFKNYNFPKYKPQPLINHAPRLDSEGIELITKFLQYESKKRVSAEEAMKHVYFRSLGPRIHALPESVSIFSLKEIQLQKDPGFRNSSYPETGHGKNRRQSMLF
UniProt P31946: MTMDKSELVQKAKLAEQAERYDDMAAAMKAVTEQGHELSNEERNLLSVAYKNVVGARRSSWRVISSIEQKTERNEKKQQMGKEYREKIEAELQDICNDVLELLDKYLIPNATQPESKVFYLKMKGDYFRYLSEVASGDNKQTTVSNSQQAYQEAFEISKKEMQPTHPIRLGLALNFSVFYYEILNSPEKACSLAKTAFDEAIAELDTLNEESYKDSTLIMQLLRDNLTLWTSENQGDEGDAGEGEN

[2] = molecular target: PAK5, wild type, protein A fusion (HEK293T) (human) (UniProt Q9P286)
[3] = molecular target: NEK6, wild type, protein A fusion (HEK293T) (human) (UniProt Q9HC98)
[4] = molecular target: NEK6(K74M&K75M) kinase-dead mutant, protein A fusion (HEK293T) (human) (UniProt Q9HC98)
[5] = molecular target: CDK17, wild type, protein A fusion (HEK293T) (human) (UniProt Q00537)
[6] = molecular target: BUB1, wild type, protein A fusion (HEK293T) (human) (UniProt O43683)

## firefly-V5 fusion 14-3-3β (HEK293T) (from UniProt P31946 1-246)
[1]
  binding: no binding
[2]
  binding: binds
[3]
  binding: no binding
[4]
  binding: no binding
[5]
  binding: binds
[6]
  binding: no binding
